Data published in article PMC7110144.
Residue numbers refer to the chain shown, from its start. These are yes or no findings as the source states them, for the method shown. Some results given as binding are weak or reduced against the parent protein; the word gives no strength. For some assays here: Sequences can lack the tags named with a protein.

The chains behind the UniProt entries cited, without tags or fusion partners. Where a name states a change or a piece, a line headed by the entry shows the natural chain unless it says otherwise. A line that says so, or that is headed by a name, gives the form on record, which may keep a tag or linker.
UniProt Q9VEN2: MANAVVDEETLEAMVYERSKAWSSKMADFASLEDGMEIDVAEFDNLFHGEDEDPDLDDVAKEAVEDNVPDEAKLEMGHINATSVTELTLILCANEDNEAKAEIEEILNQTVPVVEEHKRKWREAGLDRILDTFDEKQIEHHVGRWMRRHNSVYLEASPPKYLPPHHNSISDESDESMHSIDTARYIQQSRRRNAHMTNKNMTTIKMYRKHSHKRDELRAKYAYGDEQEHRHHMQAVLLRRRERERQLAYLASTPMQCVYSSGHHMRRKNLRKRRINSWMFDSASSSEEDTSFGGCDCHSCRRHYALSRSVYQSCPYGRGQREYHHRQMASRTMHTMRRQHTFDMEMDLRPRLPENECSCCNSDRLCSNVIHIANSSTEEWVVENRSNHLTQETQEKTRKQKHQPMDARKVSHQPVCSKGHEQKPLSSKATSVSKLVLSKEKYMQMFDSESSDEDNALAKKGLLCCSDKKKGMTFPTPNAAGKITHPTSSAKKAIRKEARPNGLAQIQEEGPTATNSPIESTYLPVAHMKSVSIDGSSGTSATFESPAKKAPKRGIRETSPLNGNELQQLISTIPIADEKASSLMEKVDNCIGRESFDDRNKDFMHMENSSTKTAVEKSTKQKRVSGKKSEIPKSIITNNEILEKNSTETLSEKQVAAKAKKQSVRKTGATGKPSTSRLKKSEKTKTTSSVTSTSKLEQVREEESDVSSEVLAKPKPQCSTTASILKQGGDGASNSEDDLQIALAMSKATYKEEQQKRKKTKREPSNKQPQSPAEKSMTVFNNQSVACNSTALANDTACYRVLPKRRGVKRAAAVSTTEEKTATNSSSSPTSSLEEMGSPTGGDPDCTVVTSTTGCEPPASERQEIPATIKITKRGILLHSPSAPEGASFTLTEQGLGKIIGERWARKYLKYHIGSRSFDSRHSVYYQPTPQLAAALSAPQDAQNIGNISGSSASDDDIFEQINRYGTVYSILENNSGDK
His-SUMO-CAL1(841-979 I900R/K907A/Y908A) (Q9VEN2, form named): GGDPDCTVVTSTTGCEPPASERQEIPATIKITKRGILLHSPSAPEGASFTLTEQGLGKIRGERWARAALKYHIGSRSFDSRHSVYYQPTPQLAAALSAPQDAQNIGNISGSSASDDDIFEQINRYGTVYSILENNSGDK
UniProt Q9V6Q2: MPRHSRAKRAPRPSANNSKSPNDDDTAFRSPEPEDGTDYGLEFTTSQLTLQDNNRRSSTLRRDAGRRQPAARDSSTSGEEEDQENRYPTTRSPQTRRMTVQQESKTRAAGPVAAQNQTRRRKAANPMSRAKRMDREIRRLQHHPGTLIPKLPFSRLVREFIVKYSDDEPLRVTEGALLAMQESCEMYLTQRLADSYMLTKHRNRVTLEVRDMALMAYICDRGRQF

Tests used:
[1] = target: CAL1(841-979) (Drosophila melanogaster) (UniProt Q9VEN2); experiment: AUC; sedimentation velocity (49 k rpm) and sedimentation equilibrium (26 k rpm), 4°C; untagged proteins and SEC purified untagged complex; a range of concentrations, up to 10 mg/ml; both purified
[2] = target: CENP-A-GFP-LacI (in S2 cells) (Drosophila melanogaster) (UniProt Q9V6Q2); experiment: LacO/LacI tethering assay (recruitment seen by immunofluorescence); Drosophila Schneider S2 cells with a LacO array; GFP-LacI fusion tethered, recruitment of co-transfected tagged CAL1 measured at the LacO spot
[3] = target: T1, GFP-LacI-CENP-C (in S2 cells) (Drosophila melanogaster) (UniProt Q9VHP9); experiment: as above
T1 sequence: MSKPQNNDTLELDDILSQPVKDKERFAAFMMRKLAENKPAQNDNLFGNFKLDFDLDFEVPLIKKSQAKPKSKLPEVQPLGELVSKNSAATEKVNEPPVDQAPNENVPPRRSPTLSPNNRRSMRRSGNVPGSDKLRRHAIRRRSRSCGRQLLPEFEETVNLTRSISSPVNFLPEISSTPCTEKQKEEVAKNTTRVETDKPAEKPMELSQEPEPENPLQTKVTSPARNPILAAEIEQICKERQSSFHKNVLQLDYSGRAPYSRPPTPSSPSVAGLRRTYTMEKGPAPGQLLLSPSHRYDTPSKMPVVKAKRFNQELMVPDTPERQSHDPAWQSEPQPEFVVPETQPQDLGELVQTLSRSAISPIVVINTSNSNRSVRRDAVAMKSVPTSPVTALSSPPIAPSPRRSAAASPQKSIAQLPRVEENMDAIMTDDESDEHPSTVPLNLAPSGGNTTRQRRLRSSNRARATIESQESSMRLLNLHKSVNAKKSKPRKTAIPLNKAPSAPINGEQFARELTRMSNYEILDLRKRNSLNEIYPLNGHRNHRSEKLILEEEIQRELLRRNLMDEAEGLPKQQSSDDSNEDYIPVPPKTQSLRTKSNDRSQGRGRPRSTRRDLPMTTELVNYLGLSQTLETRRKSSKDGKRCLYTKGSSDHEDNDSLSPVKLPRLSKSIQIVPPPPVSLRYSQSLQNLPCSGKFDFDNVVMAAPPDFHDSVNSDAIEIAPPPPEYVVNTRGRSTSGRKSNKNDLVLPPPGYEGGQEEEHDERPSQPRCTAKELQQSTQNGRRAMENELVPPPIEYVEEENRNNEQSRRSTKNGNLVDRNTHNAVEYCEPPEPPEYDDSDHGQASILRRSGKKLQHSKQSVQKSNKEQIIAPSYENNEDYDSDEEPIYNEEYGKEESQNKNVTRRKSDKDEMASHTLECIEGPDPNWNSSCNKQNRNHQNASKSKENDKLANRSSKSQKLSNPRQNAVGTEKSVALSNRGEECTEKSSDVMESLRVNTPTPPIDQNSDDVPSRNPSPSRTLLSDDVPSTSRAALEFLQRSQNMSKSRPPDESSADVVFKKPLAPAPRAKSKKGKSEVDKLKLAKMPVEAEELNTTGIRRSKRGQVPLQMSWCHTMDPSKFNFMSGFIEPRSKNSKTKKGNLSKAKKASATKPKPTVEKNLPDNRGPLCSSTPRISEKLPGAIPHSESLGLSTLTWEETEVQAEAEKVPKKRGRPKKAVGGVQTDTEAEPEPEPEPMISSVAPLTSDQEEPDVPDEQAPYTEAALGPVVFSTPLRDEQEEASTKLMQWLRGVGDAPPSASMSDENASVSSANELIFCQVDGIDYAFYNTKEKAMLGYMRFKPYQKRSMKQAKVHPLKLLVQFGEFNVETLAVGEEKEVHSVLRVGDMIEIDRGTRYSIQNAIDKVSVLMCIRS

[4] = target: CENP-A-GFP-LacI (in U2OS cells) (Drosophila melanogaster) (UniProt Q9V6Q2); experiment: LacO/LacI tethering assay (recruitment seen by immunofluorescence); human U2OS cells with a LacO array; GFP-LacI fusion tethered, recruitment of co-transfected CAL1-V5 measured at the LacO spot
[5] = target: T2, GFP-LacI-CENP-C (in U2OS cells) (Drosophila melanogaster) (UniProt Q9VHP9); experiment: as above
T2 sequence: T1 sequence

[6] = target: T3, His-CENP-C(1264-1411) (Drosophila melanogaster) (UniProt Q9VHP9); experiment: SEC; individually purified proteins mixed (CENP-C in molar excess); Superdex 75 or Superdex 75 increase 10/300, 20 mM Tris-HCl pH 8.0, 100 mM NaCl, 2 mM DTT; fractions on SDS-PAGE; both purified
T3 sequence: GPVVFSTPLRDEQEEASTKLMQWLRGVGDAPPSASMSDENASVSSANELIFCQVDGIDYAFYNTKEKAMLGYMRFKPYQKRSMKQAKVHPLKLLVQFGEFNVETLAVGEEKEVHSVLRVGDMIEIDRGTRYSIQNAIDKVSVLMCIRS

[7] = target: T4, His-CENP-C(1264-1411 L1357E/M1407E) (Drosophila melanogaster) (UniProt Q9VHP9); experiment: as above
T4 sequence: T3 sequence with L94E, M144E

[8] = target: T5, His-CENP-C(1264-1411 F1324R) (Drosophila melanogaster) (UniProt Q9VHP9); experiment: as above
T5 sequence: T3 sequence with F61R

## CAL1(841-979) (from UniProt Q9VEN2 841-979) (domain or fragment)
[1]
  binding: no binding

## CAL1(F43R)-V5 (in S2 cells) (from UniProt Q9VEN2 1-979)
[2]
  binding: binds

## CAL1-HA (in S2 cells) (from UniProt Q9VEN2 1-979)
[3]
  binding: binds

## CAL1-V5 (in U2OS cells) (from UniProt Q9VEN2 1-979)
[4]
  binding: binds
[5]
  binding: binds

## His-SUMO-CAL1(841-979 I900R/K907A/Y908A) (from UniProt Q9VEN2 841-979) (domain or fragment)
[6]
  binding: no binding

## His-SUMO-CAL1(841-979) (from UniProt Q9VEN2 841-979) (domain or fragment)
[7]
  binding: no binding
[8]
  binding: no binding
